“And” between values parts separate entries of the source, which are not always exact repeats. Identical values can stand only once. This continues a long series; more values of the same kind are listed elsewhere.
Assay: Toxicokinetic study of AAI after single oral administration (plasma, UPLC-QQQ-MS/MS, NCA)
Format: in vivo, F344 rats
Description: For toxicokinetic study, forty-eight […] F344 rats (specific pathogen-free grade) were enrolled in the study, with equal numbers of males and females. All rats were purchased from Charles River Laboratory (Raleigh, NC, USA). All rats were confirmed to be healthy based on a series of physical health examinations. Rats were acclimated for 5 days at a temperature of 20–26 °C, humidity of 40–70% and a 12 h light/dark circle. The rats were randomly divided into four groups (n = 12 per group), with equal numbers of males and females in each group. The allocation was performed separately for each sex (female and male) based on body weight using a stratified randomization method. During the experiment, rats were fasted and had access to water ad libitum. To minimize confounding factors, treatments and measurements were randomized within each session. Cages from different groups were evenly distributed across racks in the same room to reduce bias from light and temperature. This study was approved by the Institutional Animal Care and Use Committee (IACUC) of the National Drug Safety Evaluation Center (Approval No. IACUC-2024-K011, 20 September 2024).
During the experiment, each rat received a single oral administration via gastric gavage. Rats in the control group were administered with 0.5% sodium carboxymethyl cellulose (CMC-Na) suspension. For the treatment groups, rats were administered with gavage solution containing 10, 30 and 100 mg/kg of AAI. The gavage solution was prepared by uniformly dispersing the reference standard of AAI in the 0.5% CMC-Na solution. After oral administration, blood samples were collected from the postorbital vein plex of rats and immediately placed in EDTA tubes. To capture potential reabsorption which might occur long after AAI administration, 15 blood sampling time points were established for each dose group. A sparse sampling approach was employed to avoid excessive blood loss in each rat. For each dosage, 12 rats were subdivided into two groups. For the first group, blood samples were collected from 6 rats at 10, 30, 60, 90, 120, 240, 420, and 600 min after AAI administration; for the second group, blood samples were collected from these 6 rats at 12, 14, 16, 18, 20, 22, and 24 h after AAI administration. Therefore, the experimental design ensured that six biological replicates were obtained for each sampling time point, enabling robust toxicokinetic analysis.
Rat plasma samples were prepared as follows: Blood was centrifuged at 13,200 rpm for 10 min. Then, 25 μL of retrieved plasma was transferred to 2 mL centrifuge tubes, followed by the addition of 75 μL of methanol/acetonitrile solution (v/v, 1∶1) containing indomethacin as internal standard (IS). After vortexing for 2 min and centrifugation for 10 min at 13,200 rpm, the supernatant was used as study samples for quantitative analysis. Quality control samples (QCs) and calibration standards were prepared by spiking blank plasma with different concentrations of AAI standard solution. The QCs and calibration standards were processed using identical procedures as the study samples.
A method of ultra-performance liquid chromatography coupled with triple quadrupole tandem mass spectrometry (UPLC-QQQ-MS/MS) was developed to achieve the quantitation of AAI in rat plasma. The LC-MS/MS analysis was performed using an Acquity UPLC I-Class system coupled with an Xevo TQ XS spectrometer (Waters, Milford, MA, USA). An Acquity UPLC BEH C18 column (2.1 mm × 50 mm, 1.7 μm, Waters, Milford, MA, USA) was employed for chromatographic separation. The mobile phases consisted of water containing 5 mmol/L ammonium formate/0.1% formic acid (A) and acetonitrile (B). The gradient elution was set as follows: 1–4 min, 10–90% B; 4–5 min, 90% B; 5–5.01 min, 90–10% B; 5.01–7 min, 10% B. The flow rate was set at 0.4 mL/min. The column temperature was maintained at 40 °C. A sample volume of 2 μL was injected for analysis. […]

Q: Which results are given for `COc1cccc2c1cc([N+](=O)[O-])c1c(C(=O)O)cc3c(c12)OCO3` [AAI, Aristolochic acid I]?
A: AAI plasma concentration (high-dose (100 mg/kg oral), 0.167 h, individual rats M301,M302,M303,F301,F302,F303, 100 mg/kg): 1009.67 ng/mL and 1062.01 ng/mL and 1721.81 ng/mL and 1913.03 ng/mL and 1643.16 ng/mL and 607.21 ng/mL; AAI plasma concentration (high-dose (100 mg/kg oral), 0.5 h, individual rats M301,M302,M303,F301,F302,F303, 100 mg/kg): 2999.47 ng/mL and 3184.21 ng/mL and 4967.56 ng/mL and 1741.22 ng/mL and 7104.04 ng/mL and 8362.47 ng/mL; AAI plasma concentration (high-dose (100 mg/kg oral), 1 h, individual rats M301,M302,M303,F301,F302,F303, 100 mg/kg): 6490.96 ng/mL and 6245.89 ng/mL and 10563.14 ng/mL and 3115.53 ng/mL and 9980.23 ng/mL and 12351.60 ng/mL; AAI plasma concentration (high-dose (100 mg/kg oral), 1.5 h, individual rats M301,M302,M303,F301,F302,F303, 100 mg/kg): 1664.97 ng/mL and 2038.97 ng/mL and 4522.83 ng/mL and 3778.52 ng/mL and 3945.25 ng/mL and 12165.24 ng/mL; AAI plasma concentration (high-dose (100 mg/kg oral), 2 h, individual rats M301,M302,M303,F301,F302,F303, 100 mg/kg): 1799.39 ng/mL and 2407.42 ng/mL and 4896.69 ng/mL and 9005.21 ng/mL and 2601.40 ng/mL and 10921.55 ng/mL; AAI plasma concentration (high-dose (100 mg/kg oral), 4 h, individual rats M301,M302,M303,F301,F302,F303, 100 mg/kg): 136.32 ng/mL and 213.45 ng/mL and 139.82 ng/mL and 336.71 ng/mL and 1280.18 ng/mL and 446.76 ng/mL; AAI plasma concentration (high-dose (100 mg/kg oral), 7 h, individual rats M301,M302,M303,F301,F302,F303, 100 mg/kg): 173.06 ng/mL and 63.95 ng/mL and 15.64 ng/mL and 63.08 ng/mL and 33.78 ng/mL and 275.77 ng/mL; AAI plasma concentration (high-dose (100 mg/kg oral), 10 h, individual rats M301,M302,M303,F301,F302,F303, 100 mg/kg): 122.68 ng/mL and 64.66 ng/mL and 30.04 ng/mL and 8.77 ng/mL and 38.31 ng/mL and 129.34 ng/mL; AAI plasma concentration (high-dose (100 mg/kg oral), 12 h, individual rats M304,M305,M306,F304,F305,F306, 100 mg/kg): 16.05 ng/mL and 14.02 ng/mL and 42.26 ng/mL and 19.30 ng/mL and 13.11 ng/mL and 4.59 ng/mL; AAI plasma concentration (high-dose (100 mg/kg oral), 14 h, individual rats M304,M305,M306,F304,F305,F306, 100 mg/kg): 2.18 ng/mL and 6.90 ng/mL and 11.25 ng/mL and 12.80 ng/mL and 5.22 ng/mL and 1.93 ng/mL; AAI plasma concentration (high-dose (100 mg/kg oral), 16 h, individual rats M304,M305,M306,F304,F305,F306, 100 mg/kg): 5.46 ng/mL and 4.41 ng/mL and 1.05 ng/mL and 3.74 ng/mL and 3.08 ng/mL and 7.06 ng/mL; AAI plasma concentration (high-dose (100 mg/kg oral), 18 h, individual rats M304,M305,M306,F304,F305,F306, 100 mg/kg): 7.04 ng/mL and 3.67 ng/mL and 3.01 ng/mL and 4.52 ng/mL and 4.90 ng/mL and 2.70 ng/mL; AAI plasma concentration (high-dose (100 mg/kg oral), 20 h, individual rats M304,M305,M306,F304,F305,F306, 100 mg/kg): 25.70 ng/mL and 2.27 ng/mL and 3.98 ng/mL and 11.14 ng/mL and 9.92 ng/mL and 3.92 ng/mL; AAI plasma concentration (high-dose (100 mg/kg oral), 22 h, individual rats M304,M305,M306,F304,F305,F306, 100 mg/kg): 47.98 ng/mL and 1.65 ng/mL and 5.50 ng/mL and 142.21 ng/mL and 79.80 ng/mL and 80.57 ng/mL; AAI plasma concentration (high-dose (100 mg/kg oral), 24 h, individual rats M304,M305,M306,F304,F305,F306, 100 mg/kg): 58.08 ng/mL and 2.38 ng/mL and 52.27 ng/mL and 136.79 ng/mL and 46.66 ng/mL and 121.57 ng/mL; AAI plasma concentration (low-dose (10 mg/kg oral), 0.167 h, individual rats M101,M102,M103,F101,F102,F103, 10 mg/kg): 302.65 ng/mL and 205.66 ng/mL and 224.48 ng/mL and 361.73 ng/mL and 237.84 ng/mL and 131.58 ng/mL; AAI plasma concentration (low-dose (10 mg/kg oral), 0.5 h, individual rats M101,M102,M103,F101,F102,F103, 10 mg/kg): 640.11 ng/mL and 496.76 ng/mL and 561.81 ng/mL and 348.84 ng/mL and 161.56 ng/mL and 436.18 ng/mL; AAI plasma concentration (low-dose (10 mg/kg oral), 1 h, individual rats M101,M102,M103,F101,F102,F103, 10 mg/kg): 320.59 ng/mL and 171.91 ng/mL and 184.15 ng/mL and 218.72 ng/mL and 153.69 ng/mL and 342.08 ng/mL; AAI plasma concentration (low-dose (10 mg/kg oral), 1.5 h, individual rats M101,M102,M103,F101,F102,F103, 10 mg/kg): 295.58 ng/mL and 175.49 ng/mL and 161.16 ng/mL and 122.35 ng/mL and 58.12 ng/mL and 123.57 ng/mL; AAI plasma concentration (low-dose (10 mg/kg oral), 2 h, individual rats M101,M102,M103,F101,F102,F103, 10 mg/kg): 135.36 ng/mL and 134.41 ng/mL and 131.07 ng/mL and 93.20 ng/mL and 247.55 ng/mL and 212.86 ng/mL; AAI plasma concentration (low-dose (10 mg/kg oral), 4 h, individual rats M101,M102,M103,F101,F102,F103, 10 mg/kg): 45.53 ng/mL and 79.65 ng/mL and 58.36 ng/mL and 82.38 ng/mL and 47.04 ng/mL and 118.25 ng/mL; AAI plasma concentration (low-dose (10 mg/kg oral), 7 h, individual rats M101,M102,M103,F101,F102,F103, 10 mg/kg): 24.53 ng/mL and 14.80 ng/mL and 16.15 ng/mL and 40.40 ng/mL and 23.83 ng/mL and 38.02 ng/mL; AAI plasma concentration (low-dose (10 mg/kg oral), 10 h, individual rats M101,M102,M103,F101,F102,F103, 10 mg/kg): 18.34 ng/mL and 7.28 ng/mL and 14.52 ng/mL and 56.42 ng/mL and 36.96 ng/mL and 37.99 ng/mL; AAI plasma concentration (low-dose (10 mg/kg oral), 12 h, individual rats M104,M105,M106,F104,F105,F106, below LLOQ set to zero, 10 mg/kg): 1.11 ng/mL and 5.17 ng/mL and 0.00 ng/mL (3×) and 1.35 ng/mL; AAI plasma concentration (low-dose (10 mg/kg oral), 14 h, individual rats M104,M105,M106,F104,F105,F106, below LLOQ set to zero): 0.00 ng/mL; AAI plasma concentration (low-dose (10 mg/kg oral), 16 h, individual rats M104,M105,M106,F104,F105,F106, below LLOQ set to zero): 0.00 ng/mL; AAI plasma concentration (medium-dose (30 mg/kg oral), 24 h, individual rats M204,M205,M206,F204,F205,F206, 30 mg/kg): 0.34 ng/mL and 6.62 ng/mL and 84.22 ng/mL and 6.41 ng/mL

From publication PMC12656546, “Enterohepatic Recirculation-Mediated Reabsorption of Aristolochic Acid I: Revealed by Toxicokinetics and Metabolite Identification in Rats” (Toxics, 2025)
